Measurements as given in the supplement of paper PMC12217912.
The list shows a part of the results. Sequences were assembled here from the parent chain. Inactive controls read about 0.05.

B1: TEV protease; numbered along this chain (parent)
chain: MGESLFKGPRDYNPISSSICHLTNESDGHTTSLYGIGFGPFIITNKHLFRRNNGTLVVQSLHGVFKVKDTTTLQQHLVDGRDMIIIRMPKDFPPFPQKLKFREPQREERICLVTTNFQTKSMSSMVSDTSCTFPSGDGIFWKHWIQTKDGQCGSPLVSTRDGFIVGIHSASNFTNTNNYFTSVPKNFMELLTNQEAQQWVSGWRLNADSVLWGGHKVFMVKPEEPFQPVKEATQL

Variants of: B1
Test: raw area under fraction-flipped curve 0-4 h after induction (AUC4h, not background-subtracted), DNA-recorder readout of cleavage of the substrate (dimensionless); higher = more cleavage of the substrate by the protease variant
Conditions: temperature: 34 °C; time window: 0-4 h after rhamnose induction
Procedure: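 In vivo DNA recorder in E. coli TOP10(DE3) ΔrhaA at 34 °C. Each TEVp single-site mutant (parent TEVp 0) is paired with a single-site variant of the 7-mer TEVs (canonical ENLYFQ|S). The substrate sits between flexible linkers in a Bxb1-sfGFP-TEVs-SsrA fusion, so cleavage stabilises Bxb1 and speeds flipping of a recombination array, read by NGS. The value is the raw area under the fraction-flipped curve over 0-4 h after rhamnose induction (AUC4h), with ≥20 reads per time point. It is not background-subtracted; inactive controls average about 0.047.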
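Further: Bxb1 expression induced with 0.2% (w/v) L-rhamnose at OD600 near 0.5, cultures sampled hourly, flipped fraction per protease–substrate barcode pair counted by paired-end Illumina sequencing.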

Row | Variant | area with substrate CNLYFQS | area with substrate HNLYFQS | area with substrate INLYFQS | area with substrate LNLYFQS | area with substrate PNLYFQS | area with substrate SNLYFQS | area with substrate TNLYFQS | area with substrate WNLYFQS | area with substrate GNLYFQS | area with substrate KNLYFQS | area with substrate MNLYFQS | area with substrate NNLYFQS | area with substrate VNLYFQS | area with substrate YNLYFQS | area with substrate FNLYFQS | area with substrate QNLYFQS | area with substrate RNLYFQS
1 | T114E | 0.0841 | 0.0618 | 0.0664 | 0.0649 | 0.0598 | 0.0795 | 0.0824 | 0.0373 | – | – | – | – | – | – | – | – | –
2 | R106Y | 0.0708 | 0.0574 | – | 0.067 | 0.0808 | 0.085 | 0.0582 | 0.0604 | 0.0606 | 0.0734 | 0.0636 | 0.0712 | 0.083 | – | – | – | –
3 | D82A | 0.0601 | 0.0529 | – | – | – | – | 0.0567 | 0.0567 | – | – | – | – | – | 0.0574 | – | – | –
4 | S135C | 0.0689 | 0.0506 | – | 0.0539 | 0.0522 | – | 0.0579 | 0.0764 | – | 0.0644 | 0.0459 | 0.0613 | 0.0685 | – | 0.0634 | 0.0564 | –
5 | D149L | 0.0652 | 0.0244 | – | 0.068 | 0.0614 | 0.0751 | 0.0605 | 0.0549 | 0.0377 | – | – | 0.069 | 0.0586 | 0.0482 | 0.0457 | – | –
6 | S124L | 0.0548 | 0.0517 | – | – | 0.0602 | – | 0.0683 | 0.0775 | – | 0.0665 | 0.0676 | – | – | 0.0557 | – | – | –
7 | M125C | 0.0733 | – | – | 0.0626 | 0.0561 | – | 0.0635 | 0.06 | – | – | – | – | 0.0771 | – | – | – | –
8 | M125G | 0.0632 | 0.0626 | – | 0.0141 | 0.0706 | 0.0447 | 0.0628 | – | – | 0.0711 | – | – | – | 0.06 | 0.0459 | – | –
9 | M125A | 0.0806 | – | 0.0663 | 0.0761 | – | – | 0.0991 | – | 0.0752 | – | – | – | – | 0.0705 | – | – | –
10 | Y179C | 0.0582 | 0.0691 | 0.0515 | – | – | – | 0.0637 | 0.0474 | – | 0.0595 | – | – | – | 0.0508 | 0.0653 | – | –
11 | K90N | 0.0595 | 0.0653 | 0.0649 | 0.0642 | 0.0777 | 0.0634 | 0.0703 | – | 0.0643 | – | – | 0.0752 | 0.0633 | 0.0673 | 0.0641 | – | –
12 | Y34V | 0.0512 | – | 0.0393 | – | 0.0583 | 0.0379 | – | 0.0512 | – | – | – | – | 0.0907 | – | 0.0566 | – | –
13 | L73C | 0.0525 | 0.0733 | 0.0422 | 0.0487 | 0.0682 | – | 0.0614 | 0.051 | 0.058 | – | 0.0656 | 0.0535 | – | – | 0.0507 | 0.0483 | –
14 | M219N | 0.0629 | 0.0529 | – | 0.0586 | – | – | 0.0737 | 0.0521 | – | 0.0653 | 0.0717 | – | – | – | – | – | 0.0551
15 | T174N | 0.061 | 0.076 | 0.0538 | 0.0606 | 0.067 | – | 0.0645 | – | 0.0641 | – | 0.0634 | 0.0571 | – | 0.0677 | 0.0763 | – | –
16 | P14L | 0.102 | 0.0628 | – | 0.0643 | 0.0656 | 0.0772 | 0.0683 | 0.0592 | 0.0636 | 0.0734 | 0.0826 | 0.0646 | 0.0585 | – | 0.0675 | – | –
17 | W203I | 0.0525 | 0.0593 | 0.0463 | 0.0557 | 0.0485 | 0.0552 | – | 0.0755 | 0.064 | 0.06 | – | 0.0625 | 0.0687 | – | – | – | –
18 | V217T | 0.0623 | 0.0487 | 0.0539 | – | 0.0588 | 0.0665 | 0.0579 | 0.0644 | 0.0508 | 0.059 | 0.0459 | 0.0613 | – | – | – | – | –

Row | Variant | area with substrate CNLYFQS | area with substrate HNLYFQS | area with substrate INLYFQS | area with substrate LNLYFQS | area with substrate PNLYFQS | area with substrate SNLYFQS | area with substrate TNLYFQS | area with substrate WNLYFQS | area with substrate GNLYFQS | area with substrate KNLYFQS | area with substrate MNLYFQS | area with substrate NNLYFQS | area with substrate VNLYFQS | area with substrate YNLYFQS | area with substrate FNLYFQS | area with substrate QNLYFQS | area with substrate RNLYFQS
19 | V217S | 0.0591 | 0.0818 | 0.0644 | 0.0511 | 0.0689 | – | – | 0.0612 | 0.0516 | 0.0681 | 0.0617 | – | 0.0589 | – | – | 0.0463 | 0.0617
20 | Q146A | 0.0636 | 0.0729 | – | 0.0644 | 0.0733 | 0.0733 | – | 0.0601 | 0.0891 | – | – | 0.0748 | – | 0.0571 | – | – | 0.068
21 | R10T | 0.0529 | 0.0611 | – | – | 0.0642 | 0.0661 | 0.0643 | 0.0635 | – | 0.0665 | – | – | – | 0.0631 | 0.0511 | 0.0379 | –
22 | P222K | 0.0624 | 0.0554 | 0.0796 | – | – | 0.0705 | 0.056 | 0.0525 | – | 0.0602 | – | 0.0607 | 0.071 | 0.0594 | – | 0.0874 | –
23 | S130M | 0.0169 | 0.0635 | – | 0.0678 | – | 0.0566 | 0.0652 | – | – | – | – | 0.0661 | – | 0.0671 | 0.0602 | – | –
24 | N52L | 0.0571 | – | – | 0.0494 | 0.0455 | 0.0637 | 0.0572 | 0.0533 | – | 0.061 | 0.0569 | 0.0494 | – | 0.0558 | 0.0518 | – | –
25 | V113R | 0.0506 | 0.0514 | 0.0494 | 0.0673 | 0.0587 | 0.059 | 0.0618 | 0.0568 | – | 0.0702 | – | 0.0571 | 0.0484 | 0.0642 | 0.0525 | – | –
26 | L211W | 0.0752 | 0.0662 | – | – | 0.065 | 0.0743 | – | 0.0586 | – | 0.061 | – | – | – | 0.111 | 0.0684 | – | –
27 | F38H | 0.0639 | 0.0561 | 0.0696 | 0.0727 | 0.0673 | – | 0.0936 | 0.0572 | 0.0571 | 0.0605 | 0.0521 | – | 0.0473 | 0.0685 | – | – | –
28 | P89M | 0.0583 | 0.0694 | 0.0509 | 0.0845 | 0.0573 | – | 0.0542 | 0.047 | – | 0.0662 | – | 0.0451 | 0.0358 | 0.0472 | 0.0403 | – | –
29 | K68G | 0.0635 | 0.0609 | – | – | 0.0616 | – | – | – | – | 0.0662 | – | 0.0748 | – | – | 0.0788 | 0.0733 | –
30 | G54E | 0.052 | 0.0477 | – | – | 0.0671 | 0.0564 | 0.0654 | – | – | – | – | – | – | 0.0551 | – | 0.0635 | –
31 | G2L | 0.0699 | 0.0675 | – | 0.065 | – | – | 0.0638 | 0.0574 | – | – | 0.0765 | – | 0.0703 | – | 0.0587 | 0.0738 | –
32 | G214P | 0.0531 | 0.0479 | 0.0537 | 0.0684 | 0.0648 | 0.0523 | 0.0558 | 0.0567 | 0.0549 | – | – | – | – | 0.0317 | – | – | –
33 | G214R | 0.0719 | – | – | 0.0437 | – | – | – | – | – | 0.0628 | 0.0632 | – | – | – | 0.0379 | – | –
34 | P93V | 0.0637 | 0.0704 | – | 0.0678 | 0.0609 | 0.0629 | 0.0503 | 0.0522 | – | 0.0591 | – | – | – | – | – | – | –
35 | F95D | 0.0491 | – | 0.0434 | 0.0636 | 0.0454 | 0.0271 | – | – | 0.0422 | 0.0333 | 0.0435 | – | – | – | – | 0.0432 | –
